Measurements published in PubChem BioAssay AID1671193 (National Center for Advancing Translational Sciences (NCATS), 2021).
In all, about 150,000 compounds went through this assay and about 180 (0.12%) were called active. The inconclusive results got no clear call from the source; some entries with a clear call stand among them for comparison. Calls follow the shape of the dose curve; as a rule, active = well fitted cell-killing curve with a large enough effect; inconclusive = small, poorly fitted or top-dose-only effect, or effect the other way; inactive = flat fitted curve, though single readings scatter. Where the call is inconclusive, the potency comes from a doubtful curve fit.

assay: GF-AFC viability counterscreen for inhibitors of alpha-synuclein gene (SNCA) expression; conditions: HEK-293-SNCA-luc viability, GF-AFC fluorescence, 24 h; activity change, negative = cytotoxicity: at 57.1 µM (top of the series) unless noted; also: nearly all actives have a fitted effect of over 30% in size;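 as to activity change, negative = cytotoxicity: 0% = DMSO-treated cells and -100% = medium-only wells without cells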
Method in brief: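 Cytotoxicity counterscreen: after 24 h compound treatment of genome-edited SNCA-luciferase HEK-293 cells, live-cell protease substrate GF-AFC read by fluorescence after 30 min; activity scaled between DMSO (0%) and medium-only (-100%), curves Hill-fitted.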
Potency is read from the fitted curve at half-maximal effect; tags tell the direction and shape of the fitted curve.

| Compound | Potency | activity change, negative = cytotoxicity |
| --- | --- | --- |
| COc1cc(NC(=O)Nc2cccc(-c3noc(C)n3)c2)cc(OC)c1OC | inconclusive: 25.1 µM [cytotoxic, single point] |  |
| COc1cccc(CC(=O)N2CCC3(CC2)N(C)C(=O)CS3(=O)=O)c1 | inconclusive: 22.4 µM [cytotoxic, single point] |  |
| Cc1nn(C)c2c1c(-c1ccccc1)cc(=O)n2CC(=O)Nc1ccccc1C(F)(F)F |  | inactive: 11% |
| O=C(N1CCN([S+](=O)([O-])c2ccccc2)CC1)N1CC2CC(C1)[C@H]1CCCC(=O)N1C2 (some centres undefined) |  | inactive: -5.24% |
| CCOC(=O)C1CCN(C(=O)c2cc(-c3ccccc3OC)c3nncn3n2)CC1 |  | inactive: -4.46% |
| O=C1CCN(C(=O)[C@@H](Cc2ccccc2)NS(=O)(=O)c2cccs2)CCOCCN1 | inconclusive: 8.91 µM [cytotoxic, single point] |  |
| O=C(Nc1ccc(Cl)cc1Cl)c1ccnc2[nH]ccc12 | inconclusive: 7.08 µM [cytotoxic, single point] |  |
| COc1ccc(C(=O)N2CCC[C@@]3(CCN(C(=O)Nc4ccccc4)C3)C2)cc1 | inconclusive: 6.31 µM [cytotoxic, single point] |  |
| CCOC(=O)CSc1nnc2n(-c3ccccc3)c(=O)c3c4c(sc3n12)CC(C(C)(C)C)CC4 (centres undefined) | inconclusive: 39.8 µM [cytotoxic, single point] |  |
| COC(=O)CN1CCOC(c2ccc3cc(OC)ccc3c2)C1 (centres undefined) |  | inactive: 1.87% |
| CCCCCCNC(=O)Cc1csc2nc(C)c(-c3cc(C)n(-c4ccccc4OC)n3)c(=O)n12 |  | inactive: -16.8% |
| COc1ccc(-c2ccc3nc(-c4ccc(F)cc4F)oc3c2)c(OC)c1OC |  | inactive: 0.324% |
| Cn1ncc(N2CCCC(CC(=O)O)C2)cc1=O (centres undefined) |  | inactive: 1.26% |
| Cc1ccc(C(=O)N2CCC23Cc2ccccc2NC3=O)cc1 (centres undefined) |  | inactive: -22.6% [at 87.6 µM] |
| CCc1ccc(C2=NN(CCC(=O)NCCc3ccc(OC)c(OC)c3)C(=O)CC2)cc1 | inconclusive: 39.8 µM [cytotoxic, single point] |  |
| COc1ncccc1-c1nccc2c(=O)cc(N(C)C3CCOCC3)oc12 |  | inactive: 3.78% [at 87.6 µM] |
| COCCNC(=O)c1c[nH]c2ccc(S(=O)(=O)Nc3ccc(F)cc3F)cc2c1=O | inconclusive: 2.24 µM [rising, full curve, poor fit] |  |
| O=C(Cc1c[nH]c2ccccc12)N1CCCN(c2cc(-c3ccc(Br)cc3)[nH]n2)CC1 | inconclusive: 39.8 µM [cytotoxic, single point] |  |
| CCOC(=O)C(CCc1ccccc1)NC1CCCN2CCCC(C(=O)O)N2C1=O (centres undefined) | inconclusive: 5.32 µM [rising, single point] |  |
| COc1cc(OC)c(OC)cc1CN1C[C@@H]2C(=O)N(C)C(=O)[C@@H]2C1 | inconclusive: 6.31 µM [cytotoxic, single point] |  |
| COc1ccc(CNC(=O)C(N)c2c(C)n[nH]c2C)c(F)c1F (centres undefined) |  | inactive: 0.649% |
| O=C(c1ccccc1Cl)N1CCc2nc(-c3ccc(Cl)cc3)nc(-c3ccccc3)c2C1 |  | inactive: 1.24% |

| Compound | Potency | activity change, negative = cytotoxicity |
| --- | --- | --- |
| Cc1c(C(=O)N2CCCCCC2)c(S(=O)(=O)N(Cc2ccccc2)C(C)(C)C)c(C)n1C | inconclusive: 17.8 µM [cytotoxic, partial curve, poor fit] |  |
| CC1=C[C@@H](CNC(=O)N2CCOCC2)[C@H](C(C)C)C[C@H]1Cc1nc2ccccc2n1C | inconclusive: 12.6 µM [cytotoxic, partial curve] |  |
| CCOCC1(C)COc2ccc(C(=O)Nc3cccc(Cl)c3)cc2N1 (centres undefined) | inconclusive: 56.2 µM [cytotoxic, single point] |  |
| COc1cc(-c2cnc3ccccc3c2)cc2c1OCCNC2 |  | inactive: 7.7% |
| COc1ccc(Nc2oc(/C=C/c3cccc(OC)c3)nc2C#N)cc1 | inconclusive: 11.2 µM [rising, partial curve] |  |
| COc1cc(NC(=O)Cn2c(N(C)Cc3ccccc3)nc(C)cc2=O)cc(OC)c1 | inconclusive: 11.2 µM [cytotoxic, partial curve, poor fit] |  |
| COc1ccc(C(=O)N2CCc3nc(-c4ccccc4)nc(-c4ccc(OC)cc4)c3C2)cc1 | inconclusive: 5.62 µM [cytotoxic, partial curve, poor fit] |  |
| O=C1CCN(S(=O)(=O)c2ccccc2)CCCN(C(=O)CN2CCCCCC2)CCN1 |  | inactive: -1.35% |
| COc1ccc(-c2noc([C@@H]3C[C@@H](O)CN3C3CCCCC3)n2)cc1 |  | inactive: -28.5% [at 87.6 µM] |
| Cc1ccc(-n2nc(C)c([C@@H]3C=C[C@@H](NC(=O)COCC(=O)O)C3)c2C)cc1Cl |  | inactive: 6.43% [at 87.6 µM] |
| CCOc1ccc(CNC(=O)CCCc2cn(C)c3ccccc23)cc1OC | inconclusive: 2.24 µM [rising, full curve] |  |
| O=C(NCc1ccc2c(c1)OCO2)c1nc(-c2ccc(F)cc2)c2ccccn12 |  | inactive: 2.08% |
| Cn1ccnc1-c1ccc(N2CCCC(CO)(CCOc3ccccc3)C2)nn1 (centres undefined) | inconclusive: 20 µM [cytotoxic, partial curve, poor fit] |  |
| COc1cc(OC)c(C2Nc3c(C)cccc3-c3cc(C)nn32)cc1OC (centres undefined) | inconclusive: 28.2 µM [rising, partial curve, poor fit] |  |
| CC1=C(C(=O)OCc2ccccc2)C(c2cccc(Cl)c2Cl)CC(=O)N1 (centres undefined) | inconclusive: 3.55 µM [rising, full curve, poor fit] |  |
| CC(C)NC(=O)c1cn2cc(-c3ccc(C(F)(F)F)cc3)sc2n1 |  | inactive: -10.3% |
| COc1cccc(C(=O)c2cn(CC(=O)NCc3ccccc3)c3nc(C)ccc3c2=O)c1 | inconclusive: 25.1 µM [rising, partial curve, poor fit] |  |
| Fc1cccc(-c2cnc(Nc3cnccn3)c3c2CCO3)c1 |  | inactive: -7.69% [at 87.6 µM] |
| COc1cccc(CN2CC(Oc3ccccc3C(=O)NCc3ccccc3)C2)c1 |  | inactive: -11.2% |
| Cc1ccc(-c2ccc3nnc(CNC(=O)c4ccc(F)c(F)c4)n3n2)cc1C |  | inactive: -2.88% |
| COc1ccc(NC(=O)c2cccn2-c2nnc(N3CCCCC3)s2)cc1Cl | inconclusive: 35.5 µM [cytotoxic, single point] |  |
| CC(O)c1cc2n(n1)CCN(C(=O)CCc1nc3ccc(F)cc3[nH]1)C2 (centres undefined) | inconclusive: 2.82 µM [rising, full curve, poor fit] |  |
